# Hit rate of the full screen: of about 48,000 compounds, about 1,200 (2.5%) were called active. Not shown: some 2% with an inconclusive outcome.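 Rule for the calls: active = activation of at least 60% and not above a set upper limit (about 1 call in 100 departs from these limits); inconclusive = activation of 40% to 60%, or above that upper limit; inactive = activation under 40%.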 This is one part of the list.
# Molecular target: Probable G-protein coupled receptor 32 (Homo sapiens) (UniProt O75388)
# Sequence of UniProt O75388 (O75388 whole entry, looked up): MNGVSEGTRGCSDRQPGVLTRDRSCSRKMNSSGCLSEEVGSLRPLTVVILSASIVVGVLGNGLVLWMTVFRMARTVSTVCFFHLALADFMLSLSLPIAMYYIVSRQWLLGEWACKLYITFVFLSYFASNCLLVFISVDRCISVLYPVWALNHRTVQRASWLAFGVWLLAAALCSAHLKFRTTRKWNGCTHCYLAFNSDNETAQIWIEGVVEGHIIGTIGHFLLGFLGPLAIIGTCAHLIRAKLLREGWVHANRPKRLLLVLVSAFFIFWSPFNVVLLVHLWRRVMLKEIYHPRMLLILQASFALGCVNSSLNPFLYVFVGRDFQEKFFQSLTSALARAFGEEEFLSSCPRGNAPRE
# Assay: qHTS for Agonists of Human Resolvin D1 Receptor DRV1; note: 0% is about no effect
# Details: CHO-K1 GPR32 beta-arrestin PathHunter luminescence, 90 min; at 76.9 µM; active compounds read high; zero percent set by DMSO-only wells
# Procedure, shortened: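 Luminescent readout of beta-Gal complementation quantifies ligand-induced beta-arrestin association with GPR32 in CHO-K1 cells; 90 min compound incubation at 37 °C, detection 1 h at room temperature.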
row,SMILES,activation
1,O=C(Nc1ccc2nc(SCCOc3ccccc3)sc2c1)c1ccco1,inactive: 47.6%
2,CCOc1ccc(NC(=O)NC(C)c2c(-n3cccc3)sc3c2CCN(CC)C3)cc1 (stereo not given),inactive: -15.8%
3,COc1cccc(CCNC(=O)c2ccc(Cn3c(SCc4ccccc4)nc4cccnc43)cc2)c1,inactive: -15.3%
4,CCOc1ccc(NC(=O)Cn2cc(C(=O)c3ccc(F)cc3)c(=O)c3cc4c(cc32)OCO4)cc1,inactive: -5.1%
5,Cc1ccccc1NC(=O)C1CCN(C(=O)c2ccc(F)cc2)CC1,inactive: 5.84%
6,COc1ccc(-c2nc3ccccc3n2Cc2ccc(C(C)C)cc2)cc1,inactive: -35.4%
7,CC(=O)Nc1ccc2nc(SCCOc3ccc(C)cc3)sc2c1,inactive: 44.8%
8,COc1ccc(Nc2ncnc3scc(-c4ccc(F)cc4)c23)cc1,inactive: -0.434%
9,COc1ccc(Cn2c(SCc3ccc(C(=O)NC4CCCCC4)cc3)nc3cccnc32)cc1,inactive: 19.8%
10,COc1ccccc1-c1cc(C(F)(F)F)nc(S(=O)(=O)CCCC(=O)Nc2ccccc2F)n1,inactive: -21%
11,CCc1c(CN2CCN(c3ccc(F)cc3)CC2)csc1C,inactive: 23.1%
12,CC1CCc2c(N3CCC(O)CC3)c(F)cc3c(=O)c(C(=O)O)cn1c23 (stereo not given),inactive: -45.4%
13,COc1ccc(NC(=O)c2sc3nc(C)c(C(=O)Nc4ccc(C)cc4C)c(-c4sccc4C)c3c2N)cc1,inactive: -22.1%
14,COc1cc2c(cc1NC(=O)COc1cc(C)cc(C)c1)oc1ccccc12,inactive: -9.99%
15,COCCNc1nc2c(S(=O)(=O)c3ccccc3)nnn2c2ccc(Cl)cc12,inactive: -3.57%
16,O=C(COc1ccc(Cl)cc1)NCCc1csc(-c2ccc(C(F)(F)F)cc2)n1,inactive: -19%
17,COc1ccc(C)cc1Nc1nc2c(S(=O)(=O)c3cc(C)ccc3C)nnn2c2ccsc12,inactive: -5.41%
18,Cc1ccc(CN2CCC(CNC(=O)Nc3ccccc3F)CC2)cc1,inactive: 8.97%
19,CN(C)c1ccc(C(=O)Nc2sc(Nc3ccccc3)nc2C(N)=O)cc1,inactive: -14.7%
20,Cc1oc2c(cc(NS(=O)(=O)c3ccc(Br)cc3)c3ccccc32)c1C(=O)OCc1ccccc1,inactive: -3.82%
21,CCCCCn1c(=O)[nH]c2cc(C(=O)N3CCN(c4ccc(OC)cc4)CC3)ccc2c1=O,inactive: 38.2%
22,COc1ccc(Cn2c(CCC(=O)Nc3ccc(Br)c(C)c3)nc3cccnc32)cc1,inactive: -12.2%

row,SMILES,activation
1,O=C(Nc1cc(Cl)cc(Cl)c1)c1ccc(F)c(S(=O)(=O)N2CCCC2)c1,inactive: 22.8%
2,COc1cc(OC)c(C(=O)NCc2nc(-c3ccccc3)no2)cc1OC,active: 70.7%
3,CCCC(=O)Oc1c(Sc2ccc(C)cc2)c(C)nn1-c1ccccc1,inactive: -11.6%
4,CCc1ccc(CN(Cc2ccco2)c2cnc(S(C)(=O)=O)nc2C(=O)Nc2ccc(C)c(Cl)c2)cc1,inactive: -21.5%
5,CCOC(=O)C1CCC(CN(Cc2ccc(OC)cc2)S(=O)(=O)c2ccc(C)cc2)CC1 (stereo not given),inactive: -5.57%
6,O=C(Cn1nnc(-c2ccc(C(F)(F)F)cc2)n1)NCCc1ccccc1,inactive: -4.19%
7,Cc1cc(C)cc(NS(=O)(=O)c2cc3[nH]c(=O)c(=O)[nH]c3cc2C)c1,inactive: 19.6%
8,CC(=O)Nc1ccc(S(=O)(=O)N2CCC(N3CCN(Cc4ccc(C)cc4)C(=O)C3=O)CC2)cc1,inactive: -2.36%
9,CC1Cc2cc(S(=O)(=O)CCC(=O)Nc3cccc(F)c3)ccc2N1C(=O)C1CC1 (stereo not given),inactive: 7.94%
10,O=C(Cn1ncn2c(cc3cc(F)ccc32)c1=O)NC1CCCCC1,inactive: -2.25%
11,COC(=O)c1ccccc1NC(=O)c1cc2ccccn2n1,inactive: 12%
12,Cc1ccc(NC(=O)CN(C)S(=O)(=O)c2cccc3cccnc23)c(C)c1,inactive: -3.68%
13,CC(C)CC(=O)NCC(c1ccc2c(c1)OCO2)N1CCN(c2ccccc2F)CC1 (stereo not given),inactive: -20%
14,CCN(c1ccc(OC)cc1)S(=O)(=O)c1nnc(NC(=O)COc2ccc(F)cc2)s1,inactive: -5.37%
15,Cc1cccc(-c2nc(SCC(=O)NCC3CCCO3)c3c(=O)n(C)c(=O)n(C)c3n2)c1 (stereo not given),inactive: -5.86%
16,Cc1ccccc1N(C)C(=O)c1noc2c1COc1ccccc1-2,inactive: -26.8%
17,CCOC(=O)c1ccc(NC(=O)Nc2ccc3snnc3c2)cc1,inactive: 18.5%
18,CCCN(CCc1cccs1)[C@H]1CCc2c(O)cccc2C1,inactive: 36.7%
19,O=C(CCn1c(=O)c2cccn2c2cccnc21)NCc1ccccc1Br,inactive: -7.54%
20,CCOc1ccc(-c2noc(CSc3nnc(-c4ccccc4)n3-c3ccccc3)n2)cc1,inactive: 2.41%
21,CCC(=O)Nc1ccc(C)cc1-c1nc2ccccc2n(C(C)C(=O)Nc2ccccc2CC)c1=O (stereo not given),inactive: -27.7%
22,CCC(CC)C(=O)Nc1ccc(C(=O)OCc2cc(=O)n3nc(C4CC4)sc3n2)cc1,inactive: -13%

row,SMILES,activation
1,CN1C(=O)c2ccccc2Sc2ccc(NC(=O)Cc3c(F)cccc3Cl)cc21,inactive: -39.7%
2,Cc1ccc(-n2nc(C(=O)N3CCN(c4ccccc4F)CC3)c3c4ccccc4n(C)c3c2=O)cc1,inactive: -4.2%
3,CCN(CC)CCCNC(=O)CCCn1c(=O)[nH]c2ccc(Br)cc2c1=O,inactive: -19.3%
4,CC(=O)c1ccccc1NS(=O)(=O)c1cc2c(cc1C)NC(=O)CO2,inactive: -11.9%
5,CCC(C(=O)N1CCN(c2cc(Cl)ccc2C)CC1)n1nc(C)c2sc3ccccc3c2c1=O (stereo not given),inactive: 1.97%
6,Cc1ccc(N(C)S(=O)(=O)c2ccc3c(c2)C(C)(C)C(=O)N3C)cc1C,inactive: 4.49%
7,O=C(NCc1ccccc1Cl)c1cccn1-c1nnc(N2CCCCC2)s1,inactive: -12.2%
8,Cc1ccc(-n2nnnc2CNC(=O)c2ccc(F)cc2)cc1C,inactive: -15.1%
9,COc1ccccc1-c1nn2c(=O)cc(CN3CCN(S(=O)(=O)c4ccc(C)cc4)CC3)nc2s1,inactive: -11.5%
10,Brc1ccc(CNCCCSc2nnnn2-c2ccccc2)cc1,inactive: -17.3%
11,Cc1cccc(-c2noc(CNC(=O)c3ccco3)n2)c1,inactive: -12.5%
12,CCOC(=O)c1ccc(NC(=O)C2Cc3ccccc3C(=O)O2)cc1 (stereo not given),inactive: -1.53%
13,Clc1cccc(N2CCN(c3ncnc4c3nc3n4CCCC3)CC2)c1,inactive: 13.2%
14,Cc1cc(=O)n(-c2ccccc2)n1C,inactive: -9.84%
15,CC(=O)Nc1ccc(C)cc1-c1nc2ccccc2n(CC(=O)c2ccc(Cl)cc2)c1=O,inactive: -7%
16,COc1ccc(C(=O)NCC(c2cccs2)S(=O)(=O)c2ccc(F)c(C)c2)cc1 (stereo not given),active: 66.1%
17,CC(=O)N(Cc1cccnc1)c1nc2ccc(F)cc2s1,inactive: -12.3%
18,COc1cccc2cc(-c3cn4c(n3)sc3cc(F)ccc34)c(=O)oc12,inactive: -12.5%
19,Cc1ccc(CNC(=O)NC2COc3ccccc3C2)cc1 (stereo not given),inactive: 4.24%
20,Cc1ccc(C2=Nc3ccccc3N(CC(=O)Nc3ccccc3C)C(=O)C2)cc1C,inactive: -6.53%
21,CCOc1ccccc1C(=O)N1CCN(CCc2ccccn2)CC1,inactive: -8.19%
22,Cc1ccc(N2CCn3c2nc2c3c(=O)n(CCCc3ccccc3)c(=O)n2C)cc1,inactive: -7.69%

row,SMILES,activation
1,COc1ccc(OC)c(CNC(=O)c2ccccc2NC(=O)c2nsc3ccccc23)c1,inactive: -5.36%
2,Cc1cc(C)c(NC(=O)Cn2c(=O)n(CCc3ccccc3)c(=O)c3ccccc32)c(C)c1,inactive: -11.7%
3,Cc1c(Cl)cccc1NC(=O)Cn1nc(C(F)(F)F)c2c1CCC2,inactive: -9.2%
4,Cc1ccc(NC(=O)C2CCCN(S(=O)(=O)c3cccc4cccnc34)C2)c(Br)c1 (stereo not given),inactive: -19%
5,Cc1cc(C)n(-c2nc3ccccc3nc2Nc2cccc(C(=O)NCCc3ccccc3)c2)n1,inactive: -7.4%
6,COc1ccc(CCNC(=O)c2c(C)oc3nc(C)nc(N4CCOCC4)c23)cc1OC,inactive: -5.03%
7,CCN1CCOC(=O)C1CC(=O)Nc1cccc(OC)c1 (stereo not given),inactive: -7.26%
8,Cc1onc(-c2ccccc2Cl)c1C(=O)Oc1ccc(Br)cc1,inactive: -1.24%
9,Cn1cc(S(=O)(=O)N2CCCCCC2)cc1C(=O)NCc1ccc(Cl)cc1,inactive: 34.2%
10,CC1=C(C(=O)Nc2ccccc2)C(c2cccc(O)c2)n2nc(-c3ccccc3Cl)nc2N1 (stereo not given),inactive: 8.55%
11,COc1cccc(NC(=O)CN(Cc2ccccc2)S(=O)(=O)c2ccc3nc(C)sc3c2)c1,inactive: -15.2%
12,CSc1ncc(Cl)c(C(=O)Nc2nc3ccc(F)cc3s2)n1,inactive: 31.9%
13,COc1ccc(OC)c(-c2nc(C(N)=O)c3c(n2)n(-c2ccc4c(c2)OCO4)c(=O)n3C)c1,inactive: -5.64%
14,Cc1nn(CCCC(=O)NCc2cccc(F)c2)c(=O)c2nn(-c3ccccc3)c(C)c12,inactive: -20.5%
15,CCN1CCN(C(=O)c2ccc3c(c2)N(Cc2ccccc2)C(=O)c2ccccc2S3=O)CC1 (stereo not given),inactive: -7.29%
16,CCOc1ccc(CNCc2c(C(=O)O)c(C)n(Cc3ccc(F)cc3Cl)c2C)cc1,inactive: 33.8%
17,CCCCc1nn2c(=O)cc(COC(=O)c3cccc(NC(=O)c4cccc(C)c4)c3)nc2s1,inactive: -17.1%
18,CCOC(=O)c1c(S(=O)(=O)NCC(=O)Nc2ccc(Cl)c(C(F)(F)F)c2)c(C)n(C)c1C,inactive: 3.09%
19,Cc1ccc(CN2CCCn3nc(C(=O)NCc4ccccc4Cl)cc3C2=O)cc1,inactive: 22.5%

# Reference: PubChem BioAssay AID1346428 (National Center for Advancing Translational Sciences (NCATS), 2018)
